Data taken from PubChem BioAssay AID504466 (National Center for Advancing Translational Sciences (NCATS), 2011).
The whole screen tested about 330,000 compounds, of which about 4,200 (1.3%) were called active. The inconclusive results got no clear call from the source; some entries with a clear call stand among them for comparison. Calls follow the shape of the dose curve; as a rule, active = well fitted activation curve with a large enough effect; inconclusive = small, poorly fitted or top-dose-only effect; inactive = no such curve, though single readings can be large or run the other way. Potencies of inconclusive entries are doubtful fits and often do not repeat.

experiment: qHTS screen for small molecules that induce genotoxicity in human embryonic kidney (HEK293T) cells expressing luciferase-tagged ELG1; settings: HEK293T ELG1-luciferase reporter, luminescence, 16 h; series mostly up to 46 µM; activity change, positive = activation: at the top concentration; also: nearly all actives have a fitted effect of over 60% in size; as to activity change, positive = activation: % of control where 0% means no effect
In short: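 Reporter readout depends on ELG1 protein level, which increases with genetic stress. After 16 hr compound exposure at 37 °C, luciferase activity was quantified using ONE-Glo.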
Potency is read from the fitted curve at half-maximal effect; tags tell the direction and shape of the fitted curve.

| SMILES | Potency | activity change, positive = activation |
| --- | --- | --- |
| O=C(N/N=C/c1ccoc1)c1ccccc1 | inconclusive: 20.6 µM [activator, partial curve, poor fit] |  |
| CCn1nc2cc(C(=O)NCCc3cccs3)ccc2c1OC | inconclusive: 9.2 µM [activator, partial curve] |  |
| COc1ccc(CN(C)c2ncnc3sccc23)c(OC)c1OC |  | inactive: -4.31% |
| CC(=O)N1CCCc2cc(S(=O)(=O)NCCC3=CCCCC3)ccc21 | inconclusive: 20.6 µM [activator, single point] |  |
| N#C/C(=C\c1ccc(OCc2ccc(C(=O)O)cc2)cc1)C(=O)N1CCOCC1 | inconclusive: 0.291 µM [activator, partial curve] |  |
| CC(C)(C)c1ccc(-c2noc(-c3ccno3)n2)cc1 | inconclusive: 4.61 µM [activator, partial curve] |  |
| Cc1sc2ncn(CC(=O)NCCCC(=O)Nc3ccc(C(C)C)cc3)c(=O)c2c1C | inconclusive: 16.4 µM [activator, partial curve] |  |
| CC(=O)c1cccc(S(=O)(=O)N2CCCC(c3nc4c(nnn4Cc4ccc(C)cc4)c(=O)[nH]3)C2)c1 (centres undefined) | inconclusive: 3.26 µM [activator, partial curve, poor fit] |  |
| Cc1nnc(Nc2ccc3c(c2)OCO3)c2ccccc12 | inconclusive: 23.1 µM [activator, single point] |  |
| CCOC(=O)c1ccc(COc2ccc(C(C)C)cc2)o1 | inconclusive: 3.66 µM [activator, full curve] |  |
| CC(C)c1ccc(NCCC(=O)c2ccc(Br)cc2)cc1 |  | inactive: 0.652% |
| CC(=O)c1sc(NC(=O)c2cc(=O)c3ccccc3o2)nc1C | inconclusive: 9.2 µM [activator, partial curve] |  |
| O=C(O)CCC(=O)NN1C(=O)c2ccccc2NC1c1ccc(F)cc1 (centres undefined) |  | inactive: 1.17% |
| Cc1cc2ncc(-c3cccs3)nc2cc1C | inconclusive: 1.16 µM [activator, partial curve] |  |
| COc1ccc(-c2cc(-c3ccc(OC)c(OC)c3)n[nH]2)c(O)c1 | active: 5.8 µM |  |
| CCOC(=O)c1c(C)n(C)c2ccc(OC)c(NC(=O)CN3CCN(C(=O)c4ccco4)CC3)c12 |  | inactive: -3.05% |
| CC(C)(C)c1ccc(C(=O)Oc2ccc3c(c2)OCC3=O)cc1 |  | inactive: 8.44% |
| Nc1ccccc1SCc1cn2ccccc2n1 | inconclusive: 8.2 µM [activator, partial curve] |  |
| COc1cc(/C=N/Nc2nc3ccccc3s2)ccc1O | inconclusive: 8.2 µM [activator, partial curve] |  |
| CC(C)C(NC(=O)c1ccc(Cl)c([N+](=O)[O-])c1)C(=O)NCc1ccccn1 (centres undefined) |  | inactive: 2.06% |
| CCOC(=O)CCCn1ncn2c(cc3occc32)c1=O | active: 20.6 µM |  |
| CCCCc1nnc(NC(=O)C2=COCCO2)s1 | active: 14.6 µM |  |
| Cc1cccc(-n2ncc3c(N4CCCc5ccccc54)ncnc32)c1 | active: 2.31 µM |  |
| COc1ccc(-c2cc(C(=O)N3CCN(c4ccccc4)CC3)c3ccccc3n2)cc1 |  | inactive: 2.06% |
| Cc1cc(C(=O)Nc2ccc3c(c2)OCCO3)ccc1[N+](=O)[O-] | active: 0.517 µM |  |

| SMILES | Potency | activity change, positive = activation |
| --- | --- | --- |
| CCOC(=O)c1sc2ncn(/N=C/c3ccc(O)c(OC)c3)c(=O)c2c1C |  | inactive: -0.961% |
| Cn1nc(NC(=O)C(F)(F)F)c2ncc(-c3ccc(Cl)cc3)nc21 | inconclusive: 18.3 µM [activator, partial curve] |  |
| COc1cc(OC)cc(C(=O)Nc2nnc(SCC(=O)NCc3ccco3)s2)c1 | inconclusive: 25.9 µM [activator, partial curve, poor fit] |  |
| CCC(=O)NC(=Nc1nc2ccccc2s1)NC(=O)CC | inconclusive: 1.84 µM [activator, full curve, poor fit] |  |
| CCOc1ccc(NC(=O)c2csc3c2CCCC3)cc1 | inconclusive: 2.31 µM [activator, full curve] |  |
| CC(C)c1ccc(NC(=S)NCc2cccs2)cc1 | inconclusive: 18.4 µM [activator, partial curve] |  |
| O=S(=O)(NCc1ccccc1Cl)c1cccs1 |  | inactive: -14.8% |
| CCOc1cc2c(C#N)c(N3CCOCC3)nc(N)c2c(N)n1 | inconclusive: 25.9 µM [activator, partial curve, poor fit] |  |
| O=C(Nc1ccc(-c2nc3ccccc3s2)cc1)C1=COCCO1 | active: 0.259 µM |  |
| CS(=O)(=O)c1ccc2nc(NC(=O)c3ccco3)sc2c1 | inconclusive: 9.2 µM [activator, partial curve] |  |
| Cc1ccc(C(=O)Nc2cccc(C(=O)O)c2)cc1 | inconclusive: 0.164 µM [activator, partial curve] |  |
| O=C(CSc1ccccc1)Nc1ccc2c(c1)OCCO2 | active: 1.64 µM |  |
| CC(=O)N(C)c1ccc(NS(=O)(=O)c2cccc3nsnc23)cc1 |  | inactive: 1.21% |
| CCOC(=O)c1ccc(Nc2nc(C(=O)OCC)nc3ccccc23)cc1 |  | inactive: -10.3% |
| O=C(CN1C(=O)COc2ccc(S(=O)(=O)N3CCCCC3)cc21)NCc1ccccc1Cl |  | inactive: -0.734% [at 9.26 µM] |
| Cc1cc(C(=O)CSc2ncccn2)c(C)n1-c1cccc(F)c1 | active: 10.3 µM |  |
| Cn1c(=O)c(-c2ccccc2N)nc2ccccc21 | inconclusive: 29.1 µM [activator, partial curve, poor fit] |  |
| O=C(COc1ccc(F)cc1)Nc1nccs1 | inconclusive: 5.17 µM [activator, partial curve] |  |
| CCOCC(=O)Nc1cc(C)on1 | inconclusive: 5.17 µM [activator, partial curve, poor fit] |  |
| Cc1cccc(NC(=O)CNC(=O)COC(=O)C2CC2C)c1C (centres undefined) |  | inactive: 0.641% |
| Cc1cc(N(C)C)ccc1N=Nc1ccc2ncccc2c1 | active: 4.61 µM |  |
| Cc1ccc(C(=O)Nc2ccc3c(c2)OCO3)cc1S(=O)(=O)N1CCCCC1 | inconclusive: 11.6 µM [activator, partial curve, poor fit] |  |
| COc1ccc(/C=N/N=C2/SCC(=O)N2Cc2ccccc2)cc1 | inconclusive: 9.2 µM [activator, partial curve] |  |
| Cc1ccc(C)c(SCC(=O)NNC(=O)c2ccccc2)c1 |  | inactive: -1.56% |
